Experimental data as given in the BET-seq Pho4 binding data (Le et al. 2018).
The other results are listed elsewhere or left out. These are noisy estimates, calculated here from bound and input reads.

target: T1, Pho4 (S. cerevisiae) (UniProt P07270); assay: relative binding free energy (BET-seq); higher = weaker binding; conditions: reference: library average
T1 sequence: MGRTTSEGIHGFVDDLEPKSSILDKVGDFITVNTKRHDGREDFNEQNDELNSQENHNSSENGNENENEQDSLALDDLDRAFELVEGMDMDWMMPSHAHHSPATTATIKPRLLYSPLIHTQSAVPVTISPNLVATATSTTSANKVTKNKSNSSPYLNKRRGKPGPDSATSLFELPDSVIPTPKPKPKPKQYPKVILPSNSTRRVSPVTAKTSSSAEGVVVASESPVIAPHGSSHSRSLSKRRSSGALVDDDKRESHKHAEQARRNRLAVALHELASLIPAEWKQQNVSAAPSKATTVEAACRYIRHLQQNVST

Sequence | relative binding free energy
GGTCCCACGTGAGGGT | 0.13 kcal/mol
AGGATCACGTGATGGC | 0.24 kcal/mol
CTGGGCACGTGGGACG | -0.28 kcal/mol
TTAGGCACGTGTGCTT | -0.07 kcal/mol
TTGGTCACGTGTTGCA | 0.11 kcal/mol
TTGTCCACGTGGTTAT | -0.05 kcal/mol
TTTTACACGTGTCTCG | 0.21 kcal/mol
GGAGGCACGTGAATGC | 0.27 kcal/mol
TGTCGCACGTGGGCAA | -0.17 kcal/mol
GTTACCACGTGTTAGT | 0 kcal/mol
TCAAACACGTGGGTTT | -0.02 kcal/mol
AGGTCCACGTGGGCAT | -0.14 kcal/mol
TTGTACACGTGTATGA | -0.07 kcal/mol
TGTAACACGTGGGCAG | -0.26 kcal/mol
AAAATCACGTGTCGGT | 0.13 kcal/mol
CCTGTCACGTGTGGGC | 0.16 kcal/mol
TTGGTCACGTGGGTTT | 0.11 kcal/mol
TGAGTCACGTGGGCAA | 0.08 kcal/mol
AAGGACACGTGGGATA | 0.04 kcal/mol
TATGTCACGTGGGGCG | -0.01 kcal/mol
TTGCTCACGTGATGAG | 0.24 kcal/mol
TATAGCACGTGGCGTG | -0.08 kcal/mol
ATTCACACGTGGAGTT | 0.1 kcal/mol
CTATGCACGTGTGGTA | -0.01 kcal/mol
TTATCCACGTGTCTGG | 0.08 kcal/mol
TTTTTCACGTGGTTGA | 0.33 kcal/mol

Sequence | relative binding free energy
TGGTACACGTGGTTCT | 0.17 kcal/mol
GGCTGCACGTGATGTG | 0.06 kcal/mol
GTGGGCACGTGGTTGA | 0.01 kcal/mol
AGTATCACGTGCATTA | 0.17 kcal/mol
TAGGACACGTGGTACG | 0.02 kcal/mol
TGAGACACGTGTAATT | 0.07 kcal/mol
TATAGCACGTGTGAGA | -0.03 kcal/mol
CTTGTCACGTGACTTG | 0.15 kcal/mol
ATGTTCACGTGATAGT | 0.33 kcal/mol
GTGGGCACGTGAGCTT | 0.13 kcal/mol
GGCGCCACGTGTGGGG | 0.02 kcal/mol
TTAGTCACGTGCCGTT | -0.06 kcal/mol
GTACTCACGTGCGGTG | 0.19 kcal/mol
TGTATCACGTGTAGTC | 0.02 kcal/mol
CGAGGCACGTGGGAAA | -0.03 kcal/mol
TAGCTCACGTGTGTGC | 0.29 kcal/mol
TTTAGCACGTGAATTC | 0.31 kcal/mol
GTGGACACGTGTTTAA | 0.13 kcal/mol
TAGTGCACGTGAGGGG | 0.15 kcal/mol
GGATTCACGTGATTGG | 0.4 kcal/mol
ATTCGCACGTGAGGGG | 0.18 kcal/mol
CACATCACGTGGGGTT | 0.03 kcal/mol
GGGGACACGTGTGTTA | 0.11 kcal/mol
TACGTCACGTGTTTGC | 0.07 kcal/mol
GCGAGCACGTGGGGTG | -0.26 kcal/mol
TAGGCCACGTGTTGAG | -0.16 kcal/mol

Sequence | relative binding free energy
TGCAGCACGTGGTGGG | -0.24 kcal/mol
GGATACACGTGGAGGA | 0.06 kcal/mol
AGGAGCACGTGGTTAT | -0.07 kcal/mol
TCAGGCACGTGGAGTA | -0.19 kcal/mol
TGTCTCACGTGGAGGT | 0.17 kcal/mol
CATAGCACGTGAGTGG | 0.06 kcal/mol
GTATGCACGTGCAAGG | 0 kcal/mol
TGGTTCACGTGATGGC | 0.28 kcal/mol
TGTTGCACGTGTTACA | -0.18 kcal/mol
CTGTTCACGTGTATAG | 0.11 kcal/mol
GGGCGCACGTGACGGG | 0.07 kcal/mol
GTACGCACGTGAAAGG | 0.31 kcal/mol
TGATTCACGTGTTAGT | 0.1 kcal/mol
AGTGGCACGTGTGATA | 0.02 kcal/mol
TAGGGCACGTGAGACG | -0.06 kcal/mol
AATTGCACGTGGTTTG | 0 kcal/mol
AGGGGCACGTGCTAAG | -0.22 kcal/mol
ACTTTCACGTGCAGTT | 0.36 kcal/mol
CGGGGCACGTGCTTGA | -0.14 kcal/mol
AGTTCCACGTGTTATG | 0.18 kcal/mol
ATTTACACGTGGATTT | -0.06 kcal/mol
GTTATCACGTGTACTG | 0.13 kcal/mol
GTTGTCACGTGCGCTG | 0.12 kcal/mol
GTGTACACGTGGGCTG | 0.05 kcal/mol
AGTGACACGTGGTCTG | -0.19 kcal/mol
ATTGTCACGTGGGCGT | -0.12 kcal/mol

Sequence | relative binding free energy
TGGGGCACGTGGTGGA | -0.14 kcal/mol
GAAAGCACGTGAGTTG | 0.2 kcal/mol
ATCTTCACGTGGTTGG | 0.27 kcal/mol
GTGGACACGTGTCGGA | -0.05 kcal/mol
TGGGCCACGTGTATTA | -0.07 kcal/mol
TAGCTCACGTGTCGTT | 0.24 kcal/mol
CGGAGCACGTGAGGGA | 0.06 kcal/mol
TTAGTCACGTGAATGA | 0.18 kcal/mol
AGCAGCACGTGGTGAG | -0.07 kcal/mol
GGTCTCACGTGTGAGA | 0.24 kcal/mol
TATCGCACGTGGCGGT | -0.17 kcal/mol
AGCAGCACGTGGGCAG | -0.15 kcal/mol
ATTTGCACGTGTACTG | 0.05 kcal/mol
TTTGACACGTGAGAGT | 0.28 kcal/mol
TTGGGCACGTGAAGGC | 0.22 kcal/mol
TCACGCACGTGTTGTA | 0.04 kcal/mol
ATTGGCACGTGACTGG | 0.02 kcal/mol
GGTGTCACGTGCGATG | 0.04 kcal/mol
AGATGCACGTGAGATT | 0.18 kcal/mol
ATGTGCACGTGGGTCA | -0.29 kcal/mol
CGCTTCACGTGGGGAG | 0.17 kcal/mol
ATCTTCACGTGATATG | 0.3 kcal/mol
GAGATCACGTGGGGAA | 0.18 kcal/mol
GTGAGCACGTGAGGGG | 0.14 kcal/mol
TGTGACACGTGTGAGA | 0.06 kcal/mol
AGGCGCACGTGGCGGG | -0.22 kcal/mol

Sequence | relative binding free energy
TTGGTCACGTGAGCTG | 0.32 kcal/mol
TTCTGCACGTGGTCTT | -0.01 kcal/mol
CGTGACACGTGGGGTT | -0.14 kcal/mol
ACGTGCACGTGCTGGG | -0.1 kcal/mol
TGCGCCACGTGGGTAG | -0.22 kcal/mol
TTAGGCACGTGTAAGA | 0.03 kcal/mol
ATATGCACGTGTTGGA | -0.01 kcal/mol
TGTGCCACGTGGGCAG | -0.36 kcal/mol
AAAGGCACGTGGAGTG | 0.03 kcal/mol
TTTTTCACGTGTAGGG | 0.35 kcal/mol
TTTCTCACGTGGGGTC | 0.15 kcal/mol
AGCGGCACGTGGAGTT | -0.12 kcal/mol
TTTTTCACGTGCGGAT | 0.35 kcal/mol
ATCGGCACGTGTTGAG | 0.01 kcal/mol
CAAGTCACGTGGTGTG | 0.01 kcal/mol
TTGTGCACGTGGGCCA | -0.24 kcal/mol
TTGCACACGTGGGTCG | -0.15 kcal/mol
CTGTTCACGTGTATGA | 0.2 kcal/mol
CAGAGCACGTGATGGG | 0.08 kcal/mol
TGTGGCACGTGTTGGA | 0.02 kcal/mol
TAATGCACGTGGCATG | -0.11 kcal/mol
TTGTGCACGTGAGGAC | 0.17 kcal/mol
GAACTCACGTGGGGGC | 0.21 kcal/mol
GGAATCACGTGTTGTC | 0.25 kcal/mol
GTGGTCACGTGCTGGC | 0.07 kcal/mol
CTTGCCACGTGGTGAT | -0.08 kcal/mol

Sequence | relative binding free energy
TATGTCACGTGATGGC | 0.23 kcal/mol
TATTGCACGTGGCGTA | -0.05 kcal/mol
AGGTCCACGTGGGTGG | -0.15 kcal/mol
AAGGTCACGTGTGAAT | 0.23 kcal/mol
TGGGACACGTGATAGG | 0.05 kcal/mol
TTTGACACGTGGGTAT | -0.18 kcal/mol
TTGTGCACGTGGCCTA | -0.06 kcal/mol
ATGATCACGTGTAATG | 0.13 kcal/mol
CTACGCACGTGAGGGG | 0.02 kcal/mol
TTTTGCACGTGGTAGC | -0.01 kcal/mol
CGAAGCACGTGGGGCA | -0.07 kcal/mol
AGGCACACGTGACGGG | 0.28 kcal/mol
TGTACCACGTGGGTGC | -0.19 kcal/mol
AGAGTCACGTGCGCGG | 0.04 kcal/mol
AATCTCACGTGGTGTT | 0.1 kcal/mol
GGATTCACGTGGCGTA | 0.29 kcal/mol
CGGGGCACGTGTGTGG | -0.15 kcal/mol
GTATGCACGTGCATGG | -0.12 kcal/mol
GGTTACACGTGGCGTC | 0.17 kcal/mol
AATGTCACGTGTGTCA | 0.07 kcal/mol
TAGCACACGTGGTGGG | -0.04 kcal/mol
TATTACACGTGAGTAT | 0.28 kcal/mol
TGAGGCACGTGGTAAA | 0.02 kcal/mol
GAGTTCACGTGTGCTA | 0.39 kcal/mol
GGCTTCACGTGTTTAA | 0.37 kcal/mol
GATTGCACGTGGTAGC | -0.04 kcal/mol

Sequence | relative binding free energy
ACTGTCACGTGTGTGT | 0.11 kcal/mol
CTGTACACGTGGTGGT | -0.05 kcal/mol
TTTTGCACGTGGTTTG | 0.01 kcal/mol
TGGCTCACGTGGGATC | 0.23 kcal/mol
TGTGTCACGTGGGAAC | 0.04 kcal/mol
TGTAGCACGTGTCAAG | -0.02 kcal/mol
CTTTCCACGTGTAGGG | 0.16 kcal/mol
AATAGCACGTGTGTTC | -0.02 kcal/mol
TATGTCACGTGCGGGA | 0 kcal/mol
AAGAGCACGTGCGGTT | -0.11 kcal/mol
CGGCGCACGTGGGTCG | -0.19 kcal/mol
TTTTTCACGTGTTAGT | 0.31 kcal/mol
CGTGGCACGTGGACTG | -0.05 kcal/mol
TTTGGCACGTGTGGCC | 0.02 kcal/mol
GTAAGCACGTGCTGGG | -0.2 kcal/mol
GGACGCACGTGTGGGA | -0.11 kcal/mol
GTTTGCACGTGGTGCG | -0.04 kcal/mol
AGTGGCACGTGAGTCT | -0.04 kcal/mol
TACTTCACGTGGTAGT | 0.19 kcal/mol
CTTTTCACGTGTTTCT | 0.27 kcal/mol
GTACTCACGTGGGTGG | 0.17 kcal/mol
TGGTCCACGTGCTGTG | 0.02 kcal/mol
AGGCACACGTGGGCGT | -0.08 kcal/mol
TTTATCACGTGGTTGG | 0.16 kcal/mol
CTGGTCACGTGTGTAT | 0.15 kcal/mol
TGTGCCACGTGTTATG | -0.06 kcal/mol

Sequence | relative binding free energy
CGCGACACGTGGTGTA | 0.02 kcal/mol
TGGTTCACGTGGATCT | 0.28 kcal/mol
GGAGTCACGTGTGTGC | 0.21 kcal/mol
TAGTGCACGTGTTCGA | -0.17 kcal/mol
TGTCACACGTGTATTT | -0.03 kcal/mol
GTGAGCACGTGAATGT | 0.39 kcal/mol
GTTCACACGTGTGAGT | 0.09 kcal/mol
GCTTTCACGTGAGGTG | 0.3 kcal/mol
AGATACACGTGGAGGG | -0.06 kcal/mol
GTAGACACGTGGGACG | -0.12 kcal/mol
TGGATCACGTGTAACG | 0.29 kcal/mol
TAGCTCACGTGTTATT | 0.03 kcal/mol
TTGTTCACGTGGCGTG | 0.15 kcal/mol
GACGTCACGTGTTTTT | 0.41 kcal/mol
CTGTGCACGTGATTGT | 0.06 kcal/mol
AATTGCACGTGGCGTT | -0.04 kcal/mol
CGGGGCACGTGTAGGA | -0.01 kcal/mol
GTTGTCACGTGGCGAT | 0.11 kcal/mol
GAGCTCACGTGGTTTA | 0.24 kcal/mol
AGCTGCACGTGGGATT | -0.05 kcal/mol
TATAACACGTGAGGTA | 0.26 kcal/mol
GTCGGCACGTGGATTT | 0.04 kcal/mol
TAGTGCACGTGCATGT | -0.17 kcal/mol
TTTTTCACGTGTATTT | 0.3 kcal/mol
TGAAGCACGTGTGCTT | -0.11 kcal/mol
ATGCTCACGTGTTTGT | 0.14 kcal/mol

Sequence | relative binding free energy
AAGGCCACGTGATGGT | 0.08 kcal/mol
TGTTGCACGTGAATCG | 0.2 kcal/mol
GGTGTCACGTGTCGCG | 0.2 kcal/mol
TTTTCCACGTGAATGG | 0.28 kcal/mol
CGGGTCACGTGGCACG | 0.08 kcal/mol
AACGTCACGTGTGAGG | 0.15 kcal/mol
GGGCGCACGTGCGGCT | -0.17 kcal/mol
GTTTCCACGTGCAGTT | 0.18 kcal/mol
AAAGTCACGTGTTAAG | 0.04 kcal/mol
CTGGGCACGTGGCTTG | -0.17 kcal/mol
GAACTCACGTGTGTGG | 0.25 kcal/mol
CTAGCCACGTGTGCGG | 0.01 kcal/mol
AAGTTCACGTGGGCGG | 0.12 kcal/mol
ATTGTCACGTGGTACA | 0.06 kcal/mol
TGGGTCACGTGGGATA | -0.08 kcal/mol
AGTTGCACGTGTTCGA | -0.01 kcal/mol
GGGCCCACGTGTGTAG | -0.09 kcal/mol
ATCATCACGTGATTGG | 0.23 kcal/mol
AGATTCACGTGGGTTC | 0.26 kcal/mol
AATACCACGTGGGGTG | -0.3 kcal/mol
ATGTACACGTGAGGAG | 0.18 kcal/mol
GTTATCACGTGTGCTG | 0.16 kcal/mol
